# The campaign covered roughly 190,000 compounds. About 360 (0.19%) were called active. The shares of active, inactive and inconclusive entries below differ from those in the screen.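 How the source made its calls: active means GTP binding activity at least 20 points away from 100%, either lowered or raised; inconclusive means signal likely due to the compound's own green fluorescence; inactive means the rest.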
# Target: Ras-related protein Rab-2A (Canis lupus familiaris) (UniProt P61105)
# Assay: Rab2 wt fluorescent GTP binding changes, either direction – biochemical, dog, bead-based flow cytometry, multiplex, primary screen (AID 760);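 further: 0% = beads with excess unlabeled GTP and 100% = no-compound control corrected for plate trend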
# Settings: GST-Rab2 wt beads, Bodipy-GTP binding, at 10 µM
row,SMILES,GTP binding activity
1,COc1ccc(CC(=O)N2CCOCC2)cc1,inconclusive: 100%
2,COc1ccc(CNc2oc(Cc3cccc4ccccc34)nc2C#N)cc1,inconclusive: 107%
3,C(=N\N(Cc1ccccc1)c1ccccc1)/c1cccnc1,inactive: 98%
4,CC(NC(=O)C1C2C=CC(C2)C1C(=O)O)c1ccccc1 (configuration not stated),inconclusive: 101%
5,COCCCNC(=O)c1ccc2nc3ccccc3c(=O)n2c1,inconclusive: 93%
6,CCN1C(c2ccccc2)=C(c2ccccc2)S/C1=C/C=C1\SC(=S)N(C)C1=O,active: 71%
7,CNC(=O)COC(=O)c1cc2c(C)nn(-c3ccc(F)cc3)c2s1,inactive: 101%
8,COc1ccc(N(CC(=O)NCc2ccco2)S(=O)(=O)c2ccccc2)cc1,inconclusive: 96%
9,O=C(OC(C(=O)NCc1cccs1)c1ccccn1)c1cccs1 (configuration not stated),inconclusive: 35%
10,CCOC(=O)c1c(NC(=O)C(=O)N/N=C/c2ccc(OCC)cc2)sc2c1CCCCC2,inactive: 99%
11,c1csc(-c2nn3cnnc3c3ccccc23)c1,inactive: 90%
12,CNC(=S)Nc1cccc(S(=O)(=O)NC2=NCCC2)c1,inactive: 103%
13,O=C1CC(/C=C/c2ccco2)=Nc2ccccc2N1,inconclusive: 100%
14,Cc1cc(C)n(C(=O)CNC(=O)C2COc3ccccc3O2)n1 (configuration not stated),inactive: 100%
15,O=C(O)c1cc(-c2ccc(/C=C3/SC(=S)N(Cc4ccccc4)C3=O)o2)ccc1Cl,active: 78%
16,O/N=C1\CC/C(=N\O)c2nn(-c3ccccc3Cl)nc21,inconclusive: 92%
17,CCn1cc([N+](=O)[O-])c(C(=O)Nc2nc3ccc(OC)cc3s2)n1,inactive: 92%
18,O=C(O)C1Sc2[nH]c(=O)sc2C2c3cc(Cl)ccc3OC(=O)C12 (configuration not stated),inconclusive: 88%
19,CCOC(=O)c1c(NC(=S)NCC2CCCO2)sc(C)c1C (configuration not stated),inconclusive: 91%
20,COc1ccc(N2CCN(C(C)C(=O)N3CCCC3)CC2)cc1 (configuration not stated),inactive: 96%
21,COCCn1c(SCC(=O)Nc2cccc(C)n2)nnc1-c1ccco1,inactive: 96%
22,CCCN=Cc1ccc(O)cc1,inactive: 97%
23,C/C(=C\c1ccccc1)C(=O)NCCc1ccccc1,inactive: 96%
24,COc1cc(/C=N/NC(=O)c2sc(N)c(C#N)c2C)cc(Br)c1O,inconclusive: 77%
25,O=C(NC(=S)Nc1cccnc1Cl)c1ccco1,inconclusive: 91%

row,SMILES,GTP binding activity
1,Cc1ccc(-n2nc3cc(Cl)c(NC(=O)c4ccco4)cc3n2)cc1,inconclusive: 110%
2,c1ccc(CNCC2COc3ccccc3O2)cc1 (configuration not stated),inconclusive: 103%
3,COc1ccccc1Nc1nc(C)cs1,inconclusive: 104%
4,N=c1oc2ccc3ccccc3c2cc1-c1nc(-c2ccccc2)cs1,active: 79%
5,CCCCNC(=O)CSc1nc2ccccc2c(=O)n1CCNC(C)=O,inconclusive: 105%
6,CCOc1cc(S(=O)(=O)NC2CCCCC2)ccc1F,inconclusive: 84%
7,COc1ccccc1/C=N/NC(=O)CCn1cnc2ccccc21,inconclusive: 101%
8,O=C(c1cccc(F)c1)N1CCN(S(=O)(=O)c2ccccc2)CC1,inconclusive: 107%
9,CC[C@H](C)[C@H](NC(N)=O)C(=O)NCCc1ccc(Cl)cc1,inconclusive: 93%
10,CC(=O)C1C(c2ccccc2)c2c(n[nH]c2C)CC1(C)O (configuration not stated),inconclusive: 101%
11,C/C(=N\Nc1nc2c(s1)CCCC2)c1ccccc1,inconclusive: 105%
12,O=C(NC1CCCC1)C(c1ccco1)N(Cc1ccccc1)C(=O)c1csnn1 (configuration not stated),inconclusive: 90%
13,CC(C(=O)Nc1ccccc1-c1ccccc1)N1CCCCC1 (configuration not stated),inconclusive: 106%
14,COc1cc(-c2nnc(SCC(=O)N(C)C3CCS(=O)(=O)C3)o2)cc(OC)c1OC (configuration not stated),inconclusive: 92%
15,Cc1ccc(C(=O)NC(=S)NCc2ccco2)cc1,inconclusive: 95%
16,COc1cc2c(cc1NC(=O)COC(=O)Cn1cnc3ccccc31)oc1ccccc12,inconclusive: 92%
17,O=C(NCCCn1ccnc1)c1noc2c1CCCC2,inconclusive: 103%
18,CCS(=O)(=O)N1CCN(c2ccc([N+](=O)[O-])c(NCc3cccnc3)c2)CC1,inconclusive: 96%
19,O=C1Nc2ccccc2SC(c2ccccc2)C1O (configuration not stated),inconclusive: 103%
20,COc1cc(/C=C2\C(=O)ON=C2c2ccccc2)cc(Cl)c1O,inconclusive: 89%
21,O=[N+]([O-])c1cc(Br)c(O)c(C=Nc2ccc(N3CCOCC3)cc2)c1,inactive: 87%
22,COc1ccccc1Nc1nnc(SCC(=O)NC(=O)Nc2ccc3c(c2)OCCO3)s1,inconclusive: 96%
23,COc1ccc(NC(=O)c2c(SC)nsc2SC)cc1,inactive: 100%
24,Nc1[nH]n2c(=O)cc(-c3ccccc3)nc2c1N=Nc1ccccc1,inactive: 94%
25,Cc1cc(C)n(Cc2cc(C(=O)O)c3ccccc3n2)n1,inactive: 100%

row,SMILES,GTP binding activity
1,Cc1ccc(/C(N)=N/OC(=O)Cc2ccccc2)cc1,inconclusive: 101%
2,CN(C)S(=O)(=O)c1ccc(=S)[nH]c1,inactive: 95%
3,CN1CCN(CC(=O)Nc2cc(N(C)C)nc3ccccc23)CC1,inconclusive: 98%
4,COc1nc(Nc2ccc([N+](=O)[O-])cc2)nc(NC2CCCCC2)n1,inactive: 103%
5,NC(=S)NNC(=O)[C@@H]1CCCC[C@@H]1C(=O)O,inactive: 103%
6,COc1cc(/C=N\NC(=O)CNC(=O)C2COc3ccccc3O2)ccc1O (configuration not stated),inconclusive: 278%
7,COc1ccc(C2N(c3ccc(F)cc3)C(=O)C3CCCN32)cc1 (configuration not stated),inconclusive: 108%
8,N#CC(Sc1ccccn1)c1ccc(Cl)cc1Cl (configuration not stated),inconclusive: 92%
9,Cc1ccc(N2C(=O)N(Cc3ccccc3C)c3ccccc3S2(=O)=O)cc1,inactive: 101%
10,Cc1nc2ccc(NC(=O)N(C(C)C)C(C)C)cc2s1,inactive: 99%
11,CCN(C(=O)c1cn(CC)c(=O)c2cc(OC)c(OC)cc12)c1ccccc1C,inconclusive: 111%
12,CC1=C(C(=O)Nc2cc(C)ccn2)C(c2ccc(C)cc2)C2=C(CCCC2=O)N1 (configuration not stated),inconclusive: 102%
13,Cc1ccc(C(=O)N/N=C\c2c(C)nn(-c3ccccc3)c2Cl)cn1,inconclusive: 101%
14,Oc1ccc(NC(=S)N=Nc2c(O)[nH]c3ccc(Br)cc23)cc1,active: 79%
15,COc1cc(/C=N/Nc2nc(Nc3ccccc3)nc(N3CCCCC3)n2)ccc1OCC(=O)O,inconclusive: 89%
16,COc1ccc(NC(=O)c2cccn(CC=C(C)C)c2=O)cc1,inactive: 92%
17,CCCCC(O)CN1CCC(c2ccccc2)CC1 (configuration not stated),inconclusive: 101%
18,CCC1(CC)NC(=O)N(CC(=O)OCC(=O)Nc2sccc2C#N)C1=O,inconclusive: 93%
19,Cc1csc(NC(=O)c2cc(=O)[nH]c3ccc(S(=O)(=O)N4CCOCC4)cc23)n1,active: 79%
20,CN(/N=C/c1cccnc1)C1=NS(=O)(=O)c2ccccc21,active: 70%
21,O=c1ccc2cc(S(=O)(=O)Nc3ccc(F)cc3)ccc2o1,inconclusive: 88%
22,N/C(=N\OC(=O)COc1ccc([N+](=O)[O-])cc1)c1ccc(Br)cc1,inactive: 98%
23,N#Cc1c(N2CCN(c3ccc(F)cc3)CC2)nc(N)c2c(N)nc3c(c12)CC(=O)N3C1CC1,inconclusive: 85%
24,CNC(=S)N1CCC(NC(=O)C(Cc2ccc(F)cc2)NC(C)=O)CC1 (configuration not stated),inactive: 99%
25,CC(=O)c1c(C)nc2sc3c(=N)n(N)cnc3c2c1-c1ccc(Cl)cc1,inconclusive: 97%

row,SMILES,GTP binding activity
1,COC(=O)c1sc2nc(-c3ccco3)ccc2c1N,inconclusive: 89%
2,O=C(O)c1ccccc1C(=O)NCc1cccnc1,inactive: 100%
3,C=CCOc1cccc(/C=N/NC(=O)CN(c2cc(Cl)ccc2OC)S(=O)(=O)c2ccc(C)c([N+](=O)[O-])c2)c1,inconclusive: 156%
4,CCN=C1SC(CC(N)=O)C(=O)N1CC (configuration not stated),inactive: 97%
5,O=C(NCc1cccs1)c1cnc2ccccn2c1=O,inactive: 98%
6,O=C(O)C1CSC(c2coc3ccccc3c2=O)N1 (configuration not stated),inactive: 92%
7,O=C(O)/C=C\C(=O)NCc1cccnc1,inactive: 97%
8,COc1ccc(S(=O)(=O)N(Cc2cc3ccc(OC)cc3[nH]c2=O)CC2COCCO2)cc1 (configuration not stated),inconclusive: 107%
9,CCOC(=O)CSc1nc(NCc2ccco2)c2ccccc2n1,inconclusive: 102%
10,Nc1c(S(=O)(=O)c2ccccc2)c2nc3ccccc3nc2n1C1CC1,inactive: 86%
11,Cc1cc(C#N)c(C)n1-c1cc(C(F)(F)F)ccc1N1CCOCC1,inconclusive: 105%
12,COc1ccc(CCn2c(N)c(C#N)c3nc4ccccc4nc32)cc1OC,inconclusive: 86%
13,COc1ccc(C2C(C(C)=O)=C(O)C(=O)N2c2nccs2)cc1 (configuration not stated),inconclusive: 91%
14,NC1=NC(=O)C2(COC(c3cccnc3)OC2)S1 (configuration not stated),inconclusive: 92%
15,COc1ccc(S(=O)(=O)N2CCC(C(=O)NCC3CCCO3)CC2)cc1 (configuration not stated),inconclusive: 103%
16,COc1cc([N+](=O)[O-])cc(/C=N/N(CCC#N)C(C)=O)c1O,inactive: 95%
17,CCOC(=O)c1ccc(NC(=O)N2CCN(c3cccc(OC)c3)CC2)cc1,inactive: 95%
18,CC(Oc1ccccc1)C(=O)Nc1cccc(-c2nc3ccccc3[nH]2)c1 (configuration not stated),inconclusive: 91%
19,O=C(Nc1ccc(N2C(=O)CCC2=O)cc1Cl)c1cccs1,inactive: 102%
20,CS(=O)(=O)N(Cc1ccc(Cl)cc1)c1ccc(C(=O)NCCC2=CCCCC2)cc1,inconclusive: 103%
21,O=Cc1cc(N=Nc2cccc(C(=O)O)c2)ccc1O,inconclusive: 88%
22,Cc1cccc(NC2=NCC(=O)N2Cc2ccccc2)c1,inconclusive: 103%

# Reference: PubChem BioAssay AID760 (NMMLSC, 2007)
